Values quoted from earlier work as cited in article PMC10983004 (Journal of Medicinal Chemistry, 2024).

System: murine Tet1/2
Details: cited from earlier work

Q: Which IC50 does the source give for `O=C(O)CC[C@@H](O)C(=O)O` [R-2HG, (2R)-hydroxyglutarate] here?
A: 4 to 5 mM
